# According to paper PMC4336329 (PLoS ONE, 2015):
# Hit rate of the full screen: of about 310,000 compounds, about 2,200 (0.71%) showed an effect of 50% or more. The effect is printed as a negative number. Some of the results follow.
# Biological target: human ether-à-go-go-related gene (hERG) potassium channel (human, UniProt Q12809)
# Test: primary screen, population patch clamp on CHO cells stably expressing hERG
# Chain of human ether-à-go-go-related gene (hERG) potassium channel (Q12809 whole entry, looked up): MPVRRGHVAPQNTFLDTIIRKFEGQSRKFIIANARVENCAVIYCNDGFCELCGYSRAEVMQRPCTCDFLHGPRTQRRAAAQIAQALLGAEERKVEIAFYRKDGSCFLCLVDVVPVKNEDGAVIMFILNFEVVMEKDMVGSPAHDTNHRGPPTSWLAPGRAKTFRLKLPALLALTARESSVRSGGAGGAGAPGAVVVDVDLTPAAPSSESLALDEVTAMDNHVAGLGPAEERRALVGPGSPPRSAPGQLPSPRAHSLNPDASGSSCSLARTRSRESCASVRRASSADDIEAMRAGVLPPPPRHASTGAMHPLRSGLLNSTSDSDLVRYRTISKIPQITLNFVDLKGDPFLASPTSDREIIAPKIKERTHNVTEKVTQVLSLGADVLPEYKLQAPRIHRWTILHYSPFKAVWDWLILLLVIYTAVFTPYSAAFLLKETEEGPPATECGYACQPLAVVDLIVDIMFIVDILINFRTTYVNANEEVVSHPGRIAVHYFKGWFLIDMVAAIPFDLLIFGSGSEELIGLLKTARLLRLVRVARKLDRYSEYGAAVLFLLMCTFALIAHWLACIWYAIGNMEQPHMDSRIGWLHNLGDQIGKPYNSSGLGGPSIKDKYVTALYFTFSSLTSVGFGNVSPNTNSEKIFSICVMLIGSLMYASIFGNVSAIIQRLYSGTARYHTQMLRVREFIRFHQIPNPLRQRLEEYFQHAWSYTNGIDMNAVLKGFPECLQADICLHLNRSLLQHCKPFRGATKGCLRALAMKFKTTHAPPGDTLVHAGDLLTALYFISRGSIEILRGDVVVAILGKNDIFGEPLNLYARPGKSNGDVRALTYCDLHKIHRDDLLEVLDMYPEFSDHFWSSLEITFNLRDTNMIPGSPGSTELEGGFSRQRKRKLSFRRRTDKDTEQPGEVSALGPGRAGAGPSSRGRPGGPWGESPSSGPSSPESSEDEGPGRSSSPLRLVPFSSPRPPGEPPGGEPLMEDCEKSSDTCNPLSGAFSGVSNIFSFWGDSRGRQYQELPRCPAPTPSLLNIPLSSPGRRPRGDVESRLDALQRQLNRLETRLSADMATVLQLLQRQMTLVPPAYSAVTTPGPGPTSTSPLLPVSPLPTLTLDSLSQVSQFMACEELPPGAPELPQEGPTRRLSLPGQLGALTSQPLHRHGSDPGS
row,Compound,"hERG current change (%, negative = inhibition) at 1uM [%]"
1,Cc1nc2sc(C(c3ccccc3)N3CC(C)OC(C)C3)c(O)n2n1 (stereo not shown),10.2
2,CCOc1ccc(S(=O)(=O)N/N=C(\C)c2ccc(Cl)c(Cl)c2Cl)cc1,12.1
3,Cc1ccc(-c2nc(S(=O)(=O)c3ccccc3)c(SCC(=O)NCC3CCCO3)o2)cc1 (stereo not shown),14.4
4,COc1ccc(/C=N/NC(=O)c2cc(-c3ccccc3)nc3ccccc23)c(OC)c1,10
5,Cc1cc(C)nc(NC2=NCC(=O)N2c2ccccc2)n1,14
6,O=C(CCCN1C(=O)/C(=C/c2ccccc2Cl)SC1=S)NNC(=O)c1ccccc1Cl,22
7,Cc1ccc(CN2CC(C(=O)NNC(=O)Cn3ccc(C(F)(F)F)n3)CC2=O)cc1 (stereo not shown),8.3
8,N#C/C(=C\c1cc2ccccc2nc1N1CCCCC1)C(N)=O,-3.88
9,CCc1onc(C)c1C(=O)Nc1ccc2c(c1)OCO2,17.4
10,Cc1noc(C)c1CSc1nnc(-c2ccccc2)n1Cc1ccco1,6.58
11,COc1ccc(/C=C/C(=O)OCC(=O)NCCC2=CCCCC2)cc1S(=O)(=O)N1CCOCC1,1.38
12,CN(CC(=O)Nc1cccc(F)c1)C(=O)c1ccc(COc2ccccc2)o1,15.7
13,O=C(Nc1cccc2ccccc12)N1N=CCC1c1ccccc1 (stereo not shown),14.8
14,COc1ccc2c(c1)C1CC(C)(NC(=O)C1C(=O)c1ccccc1)O2 (stereo not shown),-3.39
15,O=C(c1cn(-c2ccccc2)nc1-c1cccs1)N1CCN(c2ccccc2)CC1,14.6
16,O=[N+]([O-])c1cccnc1Sc1ccc(Br)cc1,12.8
17,Cc1ccc(S(=O)(=O)N2CCC(C(=O)NCCc3ccccn3)CC2)cc1,8.56
18,C#CC(C)(C)NC(=O)c1ccccc1OC,4.89
19,c1cc2c(cc1C1=NNC(=NC3CC3)SC1)OCCO2,13.4
20,S=c1[nH]nc(C2CC2c2ccc(Cl)cc2)n1-c1ccc(Cl)cc1 (stereo not shown),16.8
21,Nn1c(SC/C=C/c2ccccc2)nnc1-c1cccnc1,14.6
22,CCCCOc1ccc(CON(C(C)=O)C(C)=O)cc1Cl,8.78

row,Compound,"hERG current change (%, negative = inhibition) at 1uM [%]"
1,CN(C(=O)COC(=O)c1ccccc1C(=O)N1CCN(c2ccccc2)CC1)c1ccccc1,2.26
2,O=C(NCc1ccc(Cl)s1)c1cc(COc2c(F)cccc2F)on1,2.81
3,Cc1ccc2c(c1)c1ncnc(N3CCN(c4ccccc4)CC3)c1n2C,12.7
4,CCCCn1nc2cc(C(=O)NCc3ccc(OC)cc3)ccc2c1OCC,17.8
5,C=CCc1cccc(CNc2nc3ccccc3n2C)c1O,11.4
6,CC(=O)NC(=S)Nc1cccc([N+](=O)[O-])c1,-2.63
7,O=C(CC1CCCCC1)NCc1ccccn1,0.656
8,COc1cccc(N(CC(=O)NCCSCc2ccc(Cl)cc2)S(C)(=O)=O)c1,9.11
9,COCCN(CCOC)S(=O)(=O)c1ccc(C(=O)Nc2nnc(COC)o2)cc1,15.1
10,Cc1cccc(NC(=O)CCCn2cc([N+](=O)[O-])cn2)n1,4.87
11,Cl.N=c1sccn1CC(=O)Nc1cccc2ccccc12,1.19
12,COc1cc([C@H]2c3c(cc(OC)c(O)c3OC)C[C@@H](CO)[C@@H]2CO[C@@H]2O[C@H](CO)[C@@H](O)[C@H](O)[C@H]2O)cc(OC)c1O,10.8
13,Cc1cc(NC(=O)CSc2nc3c(C)ccc(C)c3cc2C#N)no1,13.3
14,Cc1ccc(NC(=O)C(=O)NCC2CCCN2S(=O)(=O)c2cccs2)c(C)c1 (stereo not shown),17.9
15,CC(C)(C)NC(=O)CCc1nnc(Cc2c[nH]c3ccccc23)o1,9.37
16,COc1ccc(S(=O)(=O)N2CCCC(C(=O)NCc3cccnc3)C2)cc1 (stereo not shown),-2.44
17,O=C1CN(C(=O)COC(=O)C2CCN(S(=O)(=O)c3ccccc3C(F)(F)F)CC2)c2ccccc2N1,10.1
18,CCN(C(=O)CSc1nnnn1-c1ccccc1)C1CCS(=O)(=O)C1 (stereo not shown),2.58
19,Cc1ccccc1OCCC(=O)N(CC(C)C)c1c(N)n(Cc2ccccc2)c(=O)[nH]c1=O,-15.3
20,CCN1CCN(c2nc(C)c3c(n2)CC(C)CC3=O)CC1 (stereo not shown),15.6
21,O=C(NCc1ccco1)c1cc([N+](=O)[O-])ccc1N1CCOCC1,2.91
22,CCc1cc2ccc(C)cc2nc1SCC(=O)Nc1c[nH]c(=O)[nH]c1=O,8.35

row,Compound,"hERG current change (%, negative = inhibition) at 1uM [%]"
1,COc1ccc(CCNC(=O)CCNC(=O)c2ccco2)cc1,-4.63
2,C/C(CC(=O)NC12CC3CC(CC(C3)C1)C2)=N\NC(=O)c1cnccn1,11.5
3,COS(=O)(=O)[O-].Cn1c(-c2ccc3ccccc3n2)[n+](C)c2ccccc21,6.24
4,CC1(c2nnc(Cc3ccccc3)o2)CC(c2ccc(Br)cc2)=NO1 (stereo not shown),7.13
5,CC(C)NS(=O)(=O)c1ccc(OCC(=O)N(C)Cc2ccccc2)cc1,-16.1
6,CCOc1ccc(NC(=O)CN(C)C(=O)C(C)N2C(=O)c3ccccc3C2=O)cc1OCC (stereo not shown),2.6
7,CC(C)NC(=O)NC(=O)CN1C(=O)NC(Cc2c[nH]c3ccccc23)C1=O (stereo not shown),17
8,NC(=O)[C@@H]1CCCNc2c(F)cc([N+](=O)[O-])cc2C(=O)N[C@@H](CO)C(=O)N[C@@H](Cc2ccc(O)cc2)C(=O)N1,-2.24
9,COc1ccc(OCC(=O)NCCC2=CCCCC2)c([N+](=O)[O-])c1,2.46
10,CC(C)Cc1nc(N2CCOCC2)c(C#N)c2c1CCC2,9.58
11,CN(C)c1ccc(/C=C/c2nnnn2-c2ccccc2)cc1,5.52
12,O=C1c2ccccc2NC(c2ccccc2)N1CCCN1CCOCC1 (stereo not shown),9.98
13,C=CCn1c(O)c(N=NC(=O)c2cccnc2)c2cc(Br)ccc21,-3.56
14,CCn1c(SCC(=O)Nc2ccc(C)cc2)nc2nc3c(cc2c1=O)CCCC3,-1.33
15,CCOC(=O)c1sc(/N=C/N(C)C)c(C(=O)OCC)c1C,1.61
16,COc1ccccc1/C=N/NC(=O)c1ccccc1Cl,5.78
17,Cc1cccc(C(=O)NCC(=O)OCC(=O)NCCNC(=O)COC(=O)CNC(=O)c2cccc(C)c2)c1,21.2
18,CCOC(=O)C1=C(C)NC(SCC(N)=O)=C(C#N)C1c1ccccc1 (stereo not shown),4.67
19,O=C(c1ccc([N+](=O)[O-])cc1)N1CCC(Cc2ccccc2)CC1,-25.2
20,Cc1cccc(CCNC(=O)CCCOc2cc(=O)n(C)c3ccccc23)c1,-7.98
21,COc1ccc(S(=O)(=O)N2CCCCC2)cc1NC(=O)CN1C(=O)NC(C)(C2CC2)C1=O (stereo not shown),1.85
22,O=C1C(Cl)=C(NCCN2CCOCC2)C(=O)c2ccccc21,10.5

row,Compound,"hERG current change (%, negative = inhibition) at 1uM [%]"
1,COc1ccc(Br)cc1-c1nc(C)c(C(C)=O)n1O,12.8
2,Nn1c(SCC(=O)NC(=O)NCc2ccccc2)nnc1C1CC1,12.5
3,Cc1nn(CCCC(=O)N2CCN(c3ccc(F)cc3)CC2)c(C)c1[N+](=O)[O-],-9.6
4,O=C(CSc1nc2c(cnn2-c2ccc(F)cc2)c(=O)[nH]1)N1CCCc2ccccc21,10.2
5,CC(OC(=O)Cn1cnc2c1c(=O)n(C)c(=O)n2C)C(=O)N(C)c1ccccc1 (stereo not shown),15.7
6,O=[N+]([O-])c1ccc(N2CCN(c3ccccn3)CC2)c(Cl)c1,3.33
7,COc1ccc(F)cc1S(=O)(=O)NCC(c1ccco1)N1CCc2ccccc2C1 (stereo not shown),-4
8,O=C(Nc1cccc(S(=O)(=O)c2cccc(NC(=O)c3ccco3)c2)c1)c1ccco1,-3.4
9,CCCCNC(=O)CCn1c(=O)c2ccccc2n(CC(=O)N2CC(C)CC(C)C2)c1=O (stereo not shown),3.49
10,CCOc1ccc(C(=O)Nc2c3c(nn2-c2ccccc2)CS(=O)(=O)C3)cc1,12.9
11,CCc1noc(C)c1C(=O)NNC(=O)c1cc(OC)c(OC)c(OC)c1,-1.71
12,CC(Sc1ccccc1)C(=O)NN=C1CCCCCC1 (stereo not shown),8.72
13,Cn1nc(C(=O)OCC(=O)N2CCc3ccccc32)c2ccccc2c1=O,9.88
14,COc1ccc(C=O)cc1Cn1ccnc1C.Cl,15.4
15,CC(=O)NC1=NN(C(C)=O)C(c2cccc([N+](=O)[O-])c2)S1 (stereo not shown),11.7
16,CCS(=O)(=O)Nc1cccc(C2=NN(S(=O)(=O)c3ccc(C)cc3)C(c3cccs3)C2)c1 (stereo not shown),4.61
17,CC(=O)c1ccc(NC(=O)N[C@@H](CC(C)C)C(=O)O)cc1,-1.32
18,CCOC(=O)c1c(C)[nH]c(C)c1C(=O)COC(=O)c1ccc(Cl)c(S(=O)(=O)NCc2ccccc2)c1,10.1
19,Cc1ccc(CNC(=O)C2CC(c3ccccc3C(F)(F)F)=NO2)cc1 (stereo not shown),3.89
